# From article PMC6919601, “Identification of Plasmodium dipeptidyl aminopeptidase allosteric inhibitors by high throughput screening” (PLoS ONE, 2019)
# Hit rate of the full screen: of about 110,000 compounds, about 230 (0.21%) showed an effect of 50% or more. The list shows a part of the results.
# Molecular target: DPAP1 (Plasmodium falciparum, UniProt Q8IIJ9)
# Test: primary screen, percent inhibition; read by cleavage of a fluorogenic dipeptide substrate; higher = more effect of the substance
# Set-up: species or system P. falciparum D10 trophozoite lysates; single well
# Experimental: HTS was performed in black 384-well plates. The first and last two columns of each plate contained our negative (DMSO) and positive (10 μM JCP410) controls, and the 20 central columns the test compounds at 10 μM. Compounds were first diluted 50-fold into assay buffer (50 mM sodium acetate, 5 mM MgCl2, 10 mM β-mercaptoethanol, and 0.1% CHAPS, pH 5.5) from a 10 mM DMSO stock plates. One microliter of this 200 μM intermediate stock plate was dispensed into the assay plate. […] After 30 min, the reaction was quenched with 20 μL of 0.5 M acetic acid, and the fluorescent intensity measured at 523 nm (λex = 492 nm) using an Analyst HT multimode plate reader (Molecular Devices).
# 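Further: 30 min substrate incubation versus DMSO and 10 µM JCP410 controls.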
# DPAP1, sequence (Q8IIJ9 whole entry, looked up): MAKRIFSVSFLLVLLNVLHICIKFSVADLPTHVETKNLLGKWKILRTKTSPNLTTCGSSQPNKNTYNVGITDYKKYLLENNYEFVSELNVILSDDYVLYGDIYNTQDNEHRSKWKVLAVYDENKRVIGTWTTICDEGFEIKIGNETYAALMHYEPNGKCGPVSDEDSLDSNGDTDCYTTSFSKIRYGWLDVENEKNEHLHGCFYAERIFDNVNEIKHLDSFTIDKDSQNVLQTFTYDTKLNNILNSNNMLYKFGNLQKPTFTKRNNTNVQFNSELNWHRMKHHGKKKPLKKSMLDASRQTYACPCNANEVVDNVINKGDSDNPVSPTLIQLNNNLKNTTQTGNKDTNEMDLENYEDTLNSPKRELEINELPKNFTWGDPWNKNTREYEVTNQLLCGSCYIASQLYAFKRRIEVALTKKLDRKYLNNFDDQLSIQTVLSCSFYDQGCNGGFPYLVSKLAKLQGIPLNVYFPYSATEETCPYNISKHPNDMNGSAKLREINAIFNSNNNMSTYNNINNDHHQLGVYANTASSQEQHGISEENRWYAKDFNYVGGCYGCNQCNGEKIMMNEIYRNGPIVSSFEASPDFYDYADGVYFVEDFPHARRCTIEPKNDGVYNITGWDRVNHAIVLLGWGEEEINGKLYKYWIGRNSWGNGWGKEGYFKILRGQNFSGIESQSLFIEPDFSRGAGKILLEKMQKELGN
row,Structure (SMILES),% Inhibition @ 10 uM
1,COc1ccc(NC(=O)C2=C(C)NC(=O)NC2c2cccc(Cl)c2)cc1 (stereo not drawn),0.147%
2,CCOC(=O)N1CCN(C(=O)COCc2cc(-c3ccc(F)cc3)on2)CC1,-2.17%
3,OC1CCCN(Cc2ccc3ccccc3c2)C1 (stereo not drawn),-4.5%
4,Cn1c(=O)c2c(nc(NCC(=O)O)n2Cc2ccccc2)n(C)c1=O,-1.36%
5,Cc1ccc(C2C3=C(O)c4ccccc4C3=Nc3c2c(=O)[nH]c(=O)n3C)cc1 (stereo not drawn),-4.76%
6,COc1cc(C(=O)NC(C)(C)CO)cc(OC)c1OC,0.843%
7,COc1cc2c(cc1OC)C(C)N(C(=O)c1nn(C)c3c1CSc1ccccc1-3)CC2 (stereo not drawn),22.5%
8,COc1cc(CNC2CN3CCC2CC3)ccc1OCc1ccc(Cl)nc1 (stereo not drawn),-6.74%
9,CC(NC(=O)COc1ccc([N+](=O)[O-])cc1)c1ccccc1 (stereo not drawn),14.9%
10,O=C(Cn1c(C(F)(F)F)nc2ccccc21)NCCCN1CCOCC1,-5.92%
11,Cc1c(C(=O)NCCCN2CCCC2=O)oc2ccc3c(c12)C(O)CC(C)(C)O3 (stereo not drawn),-6.7%
12,CC(c1ccccc1)n1c(O)nc2ccccc21 (stereo not drawn),-0.403%
13,CCc1cccc(-n2nnc(-c3nc(-c4ccccn4)no3)c2N)c1,2.19%
14,Cc1[nH]c2ccccc2c1SCCNC(=O)C(C)Oc1ccccc1 (stereo not drawn),-1.73%
15,COc1ccc(-c2ccc(=O)n(Cc3cc(=O)n4ccccc4n3)n2)cc1,-6.4%
16,CCOc1ccc(-c2nc(CSCC(=O)NCCN3CCOCC3)c(C)o2)cc1,3.93%
17,COc1ccc(CNC(=O)CN(C)S(=O)(=O)c2ccccc2)cc1,2.76%
18,Cc1ccc(C)n1-c1cc(Cl)ccc1C(=O)O,-2.26%
19,Cc1ccc(CNC(=O)CSc2nc3ccsc3c(=O)n2CC2CCC(C(=O)O)CC2)cc1 (stereo not drawn),-3.46%
20,O=C(c1cccnc1)N1CCN(CCN2C(=O)C3C4C=CC(C4)C3C2=O)CC1 (stereo not drawn),0.385%
21,CC(C)Oc1ccc(C(=O)Nc2ccc(N3CCN(C(=O)c4ccco4)CC3)cc2)cc1,3.49%

row,Structure (SMILES),% Inhibition @ 10 uM
1,CC[C@@H](C)[C@H](NC(=O)c1cccc2ccccc12)C(=O)N[C@@H](CCc1ccccc1)C(=O)COCc1ccccc1,-12.9%
2,Cc1ccc(NC(=O)CN(c2ccc(C(C)C)cc2)S(C)(=O)=O)c(C)c1,0.528%
3,O=C(Nc1ccccc1)NC1CCCCC1NC(=O)Nc1ccccc1 (stereo not drawn),0.145%
4,COc1ccccc1OCCCn1ccnc1,-8.01%
5,CCc1nc2cccnc2n1-c1ccc(CC(=O)N2CCc3ccccc3C2)cc1,2.98%
6,Cc1cccc(Cn2c(C)c(CNCc3ccc(F)cc3)c(C(=O)O)c2C)c1,4.53%
7,COc1cc2c(cc1OC)C(C#N)N(C(=O)c1ccccc1)CC2 (stereo not drawn),-2.85%
8,CC1CCCN(C(=O)c2ccc3c(c2)C(=O)N(CCC2=CCCCC2)C3=O)C1 (stereo not drawn),8.97%
9,COc1ccc(-c2c(NCCC3=CCCCC3)c(=O)c2=O)cc1,0.309%
10,COc1ccc(OC)c(S(=O)(=O)NCc2nc3nc(C)cc(C)n3n2)c1,-0.447%
11,CCOC(=O)c1c(C)n(Cc2ccccc2)c2ccc(OCC(O)Cn3nc(C)nc3C)cc12 (stereo not drawn),-4.85%
12,O=S(=O)(c1ccc(C2CCCCC2)cc1)N1CCOCC1,-7.35%
13,COc1ccc(N2CCN(Cc3ccccc3C)CC2)cc1,4.57%
14,Cc1cc(C(=O)NCc2ccc(F)cc2)c2c(C)nn(-c3ccc(C)c(C)c3)c2n1,-2.83%
15,Cc1ccc(OCC(=O)Nc2ccc(CN3CCOCC3)cc2)cc1,0.189%
16,N#C/C(=C\c1cccc(F)c1)c1nc(-c2ccc([N+](=O)[O-])cc2)cs1,-4.11%
17,CC(NC(=O)c1ccccc1)c1ccc(Br)cc1 (stereo not drawn),-3.27%
18,COCCN1C(=O)/C(=C/c2ccc(F)cc2)S/C1=N\c1ccccc1,-8.08%
19,O=C1CC(c2ccccc2)=Nc2ncccc2N1,-3.24%
20,O=C(NC(Cc1c[nH]cn1)C(=O)O)c1ccccc1 (stereo not drawn),0.493%
21,CCOc1ccccc1/C=C(\C#N)c1nc(-c2ccc(Cl)c(Cl)c2)cs1,-0.771%

row,Structure (SMILES),% Inhibition @ 10 uM
1,Nc1nnc(CCS(=O)(=O)c2ccc(Cl)cc2)s1,-0.424%
2,Cc1ccc(S(=O)(=O)N2CCN(C(=O)c3ccco3)CC2)cc1,-0.28%
3,COc1ccc2nc(SCCOC(=O)c3ccccc3)nc(C)c2c1,-3.96%
4,COc1cc(C2c3[nH]c4ccccc4c3CC3C(=O)N(C)C(=S)N32)cc(OC)c1O (stereo not drawn),-1.86%
5,Cn1nc(C(=O)N2CCN(Cc3ccc4c(c3)OCO4)CC2)c2c1-c1ccccc1OC2,-3.51%
6,CC(C)(C)OC(=O)N1CCCC1C(=O)NCCc1ccc(S(N)(=O)=O)cc1 (stereo not drawn),-1.22%
7,CCOC(=O)N1CCc2c(sc3c2c(=O)n(CCc2ccccc2)c(=O)n3CC(N)=O)C1,3.59%
8,CN(C)c1ccc(C(=S)N2CCCCC2)cc1,-1.05%
9,OC12Oc3ccccc3C=C1N1CCC2CC1 (stereo not drawn),3.04%
10,Cc1cc(C)c2c(-n3cccc3)nn(CC(=O)N3CCCCCC3)c2n1,-3.52%
11,Nc1nc(C(Cl)(Cl)Cl)nc(-c2ccccc2)c1C(=O)c1ccccc1,3.25%
12,O=C1CCCN1CP(=O)(O)CN1CCOCC1,3.48%
13,CCC(Sc1ncccc1C(=O)O)C(=O)N1CCCC1 (stereo not drawn),-0.519%
14,O=C(NCCCO)C(=O)NCCc1ccccc1,-1.6%
15,CCOc1ccccc1NC(=O)CN(c1ccc(OC)cc1)S(C)(=O)=O,-5.67%
16,Cc1ccc(-c2cc(C(=O)Nc3cc(C)on3)c3ccccc3n2)cc1,-6.36%
17,COc1cc(OC)c(C2C(C#N)=C(N)Oc3cc(C)oc(=O)c32)cc1Br (stereo not drawn),4.66%
18,COc1cc(C(=O)NCc2cc(C)nc3ccccc23)cc(OC)c1OC,0.9%
19,COc1cccc(/C=c2\sc3nc(-c4cccc(Cl)c4)nn3c2=O)c1,2.24%
20,Cc1nnc(N2CCC(C(=O)N3CCC(C(N)=O)CC3)CC2)c2nn(-c3ccc(Cl)cc3)c(C)c12,7.24%
21,COc1ccc(-c2cc(OC(=O)c3ccccc3F)c3c(C)oc(C)c3c(=O)c2)cc1OC,3.81%
